“And” between values parts separate entries of the source, which are not always exact repeats. Identical values can stand only once.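 Interpolation was linear, between the two tested concentrations surrounding the appropriate level; five concentrations were tested over 48 hours in 96-well plates. GI50: concentration for 50% inhibition of growth. TGI denotes the concentration required for complete inhibition of growth.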
Tested on: NCI-H322M lung
Assay: NCI tumour cell line growth inhibition, 48 h

Compound | TGI | GI50 [µM]
CC(C)NC(=O)N(Nc1ccccc1)C(C)(C)C | > 100 µM | 
CC(=O)C1C(c2ccc(N(C)C)cc2)c2cc3c(cc2OC1(C)O)OCO3 (centres undefined) | > 100 µM | 
CO/N=C(\C)c1ccc(Nc2cc(-c3ccccc3)nc3ccc(OC)cc23)cc1 | 5.41 µM | 1.83
C[As](C)SCC(COC(=O)C(Cl)c1ccccc1)OC(=O)C(Cl)c1ccccc1 (centres undefined) | 16.7 µM | 4.4
OC(c1ccc(C(F)(F)F)cc1)C(F)(F)c1nc2ccccc2o1 (centres undefined) | > 100 µM | 
CS(=O)(=O)c1ccc(N=C/C=C/Nc2ccc(S(C)(=O)=O)cc2)cc1 | > 100 µM | 
O=c1ncc(F)cn1C1OC(CO)C(O)C1O (centres undefined) | > 100 µM | 
CCOC(=O)C1(C(=O)OCC)OC(C)=NC1(C(=O)OC)C(=O)OC | > 100 µM | 
COc1ccc2ccccc2c1C1NC(=O)c2ccccc2N1 (centres undefined) | > 100 µM | 
C/C(=N\NS(=O)(=O)c1ccc(C)cc1)P(=O)(O)O | > 100 µM | 
O=C(c1ccccc1)C(CN1CCCCC1)c1ccccc1 (centres undefined) | 25.1 µM | 11.4
CN1C(=O)C2(C=CC(O)CC2)c2ccccc21 (centres undefined) | > 100 µM | 
O=c1c(Br)cc2nc3ccccc3sc-2c1Br | > 100 µM | 
N#Cc1c(N2CCC(O)C2)c2ccccc2n2c1nc1ccccc12 (centres undefined) | > 100 µM | 
CC1=C(O)C(=O)C2C(=O)C1C1Cc3ccccc3C21 (centres undefined) | > 100 µM | 
Cc1cccc2c1c(=O)c1c(O)c3c(cc1n2C)OC(C)(C)C=C3 | > 10 µM | 
C/C(CC(O)(/C=N/O)c1ccccc1)=N/O (centres undefined) | > 100 µM | 
N#Cc1c(-c2ccc(Cl)cc2)[nH]c(=O)n(C2OC(CO)C(O)C(O)C2O)c1=O (centres undefined) | > 100 µM | 
O=C(COc1cc(O)c2c(=O)cc(-c3ccccc3)oc2c1)Nc1ccccc1C(F)(F)F | > 100 µM | > 100
NC(Cc1ccc(N(CCCl)CCCl)cc1)C(=O)NC(CCC(=O)O)C(=O)O (centres undefined) | > 100 µM | 
Cn1c2c(c3ccc([N+](=O)[O-])cc3c1=O)C(=O)c1ccccc1-2 | > 100 µM | > 100
CN(C)CCn1c(=O)c2ccc(NCCN3CCNCC3)c3c(=O)c4ccccc4n(c1=O)c23 | 21.4 µM | 
Clc1ccc(-c2c3c(nn2-c2ccccn2)CCc2ccccc2-3)cc1Cl | > 100 µM | > 100
COc1cc(-c2cc(O)c(-c3ccc4ccccc4n3)c(=O)[nH]2)cc(OC)c1OC | > 100 µM | 
O=C(Nc1ccc(-n2ccc3c(NC(=O)c4ccccc4)ncnc32)cc1)Nc1ccc(Cl)c(Cl)c1 | 8.46 µM | 2.45

Compound | TGI | GI50 [µM]
CNC(=O)c1ccccc1Nc1nc(Nc2cc(OC)c(OC)c(OC)c2)ncc1Br | 1.8 µM | 0.0317
Nc1nnnn1CCO | > 100 µM | 
O=C(c1ccccc1)C1OC12C(=O)Nc1c(Cl)cc(Cl)cc12 (centres undefined) | > 100 µM | 
CC1CCCC(C(O)CC2CC(=O)NC(=O)C2)C1O (centres undefined) | > 100 µM | 
CC(C)=CCC/C(C)=C/CC/C(C)=C/CC/C(C)=C/CC/C(C)=C/CC/C(C)=C/CC/C(C)=C/CC/C(C)=C/CC/C(C)=C/CO | > 100 µM | 
CC(=O)Nc1c(C)cc2c(nc3n2CCC3OC(C)=O)c1[N+](=O)[O-] (centres undefined) | > 100 µM | 
CC(C)[C@H](NC(=O)[C@H](N)Cc1ccc(N(CCCl)CCCl)cc1)C(=O)O | > 100 µM | 
CCN(CC)c1ccc(C(O)C2=CC(=O)c3ccccc3C2=O)cc1 (centres undefined) | 8.06 µM | 2.63
COc1ccc(/C(Cl)=C(\C=N/O)c2ccc(OC)c(OC)c2)cc1OC | > 100 µM | 
O=C1C(=O)N(c2cccc(C(F)(F)F)c2)C(=S)N1c1ccccc1 | > 100 µM | 
Cc1ccc(NC(=O)CC2Sc3ccccc3NC2=O)c(C)c1 (centres undefined) | 67.1 µM | 
COC(=O)c1cccn1C(=O)n1cccc1 | > 100 µM | 
CS(=O)(=O)CCc1cccc(C(=O)c2cnn(-c3ccc(F)cc3)c2N)c1 | > 25 µM | > 25
CN(/N=C/c1cccc2cccnc12)c1ccc(Cl)cc1[N+](=O)[O-] | > 100 µM | 
Cc1cccc(C(C)(C)C)c1NC(=O)CC1C(=O)Nc2ccccc2S1(=O)=O (centres undefined) | 27.1 µM | 
O=c1ccn(COC(COCc2ccccc2)COCc2ccccc2)c(=O)[nH]1 | > 100 µM | 
Cc1c(N2CCN(C)CC2)nc2ccc(Cl)cc2c1-c1ccccc1 | 29 µM | 
COCc1cc(C(=O)Nc2cc([C@H]3CC[C@@H](OC(=O)NC(C)C)C3)[nH]n2)n(C)n1 | 74 µM | 5.35
O=c1cc(-c2cccc3c2Sc2ccccc2S3)oc(N2CCOCC2)c1 | 29.5 µM | 13.7
CC(C)=CCC/C(C)=C/CC/C(C)=C/CSc1ccccc1C(=O)O | 64.6 µM and 36 µM | 25.7
O=c1[nH]c(=S)[nH]c2c1CN(CCCN1CCOCC1)CN2 | > 100 µM | 
O=c1c2cc3c(=O)n4c(cc(-c5ccccc5)c5cc(Cl)ccc54)nc3cc2nc2cc(-c3ccccc3)c3cc(Cl)ccc3n12 | > 100 µM | 
NC(=O)Cc1nc2c(N)ncnc2n1C1OC(CO)C(O)C1O (centres undefined) | > 100 µM | 
COc1ccc(CCCNC(=O)c2cc(OC)c(OC)cc2CCO)cc1OC | > 100 µM | 
O=C1C=CC(=Nc2cc(Br)c(O)c(Br)c2)C=C1 | > 100 µM | 60.7
